The supplement of paper PMC3334620
In all, about 33,000 sequences were measured (“E-score (-0.5 to 0.5)”: median about -0.054, highest 2% from about 0.35 on). This is one part of the list.

target: T1, Stb5 (UniProt P38699); assay: PBM E-score (8-mer binding enrichment) (E-score (-0.5 to 0.5)); higher = stronger / more preferred TF binding; most listed sequences are background and not binding sites; conditions: protein concentration: 200 nM; construct: GST-full length
T1 sequence: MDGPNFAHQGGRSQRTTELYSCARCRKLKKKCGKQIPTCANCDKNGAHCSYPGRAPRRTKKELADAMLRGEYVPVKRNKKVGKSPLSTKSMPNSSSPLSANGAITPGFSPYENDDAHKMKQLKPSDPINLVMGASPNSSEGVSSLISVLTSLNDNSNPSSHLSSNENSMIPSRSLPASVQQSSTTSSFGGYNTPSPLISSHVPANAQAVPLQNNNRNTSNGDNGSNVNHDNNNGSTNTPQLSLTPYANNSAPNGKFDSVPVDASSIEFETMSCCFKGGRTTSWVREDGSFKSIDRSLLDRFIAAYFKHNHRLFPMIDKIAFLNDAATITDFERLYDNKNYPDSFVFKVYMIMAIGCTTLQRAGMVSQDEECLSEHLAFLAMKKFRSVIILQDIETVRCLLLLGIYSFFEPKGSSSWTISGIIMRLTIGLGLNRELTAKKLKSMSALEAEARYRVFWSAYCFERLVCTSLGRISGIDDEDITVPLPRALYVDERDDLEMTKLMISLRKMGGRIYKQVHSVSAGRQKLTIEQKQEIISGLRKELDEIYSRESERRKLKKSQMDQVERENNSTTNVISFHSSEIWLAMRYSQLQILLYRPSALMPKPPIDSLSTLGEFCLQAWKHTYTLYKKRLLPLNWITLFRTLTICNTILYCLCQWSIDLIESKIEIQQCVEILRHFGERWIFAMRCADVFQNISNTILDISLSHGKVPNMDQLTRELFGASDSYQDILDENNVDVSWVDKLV
In short: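 Using PURExpress in vitro transcription/translation, GST-tagged yeast transcription factors were made in full-length or DNA-binding-domain form. These were applied at about 100-200 nM to double-stranded universal all-10-mer Agilent arrays, and bound protein was detected with fluorescent anti-GST. Scans were normalised with masliner before the Universal PBM Analysis Suite assigned E-scores to ungapped eight-base words pooled with their reverse complements.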

Sequence | PBM E-score
TCTGCTAA | -0.145
AGTTAATG | -0.0828
ACGTGGTC | -0.248
CTTGCTAC | -0.18
ACTGGATA | -0.08
AACCCCGT | 0.448
ACACTTAA | -0.117
ATGTAGGG | 0.0205
GATACTCC | 0.146
AGCGAATC | -0.176
AAACAGTC | -0.229
CAGTATAA | 0.0599
GCCTAGAC | -0.0806
CGAGTCGA | -0.17
TCGTTTCA | -0.0539
CGGGAGAG | -0.166
ACATTGCC | -0.0814
CTTGACGA | -0.187
GATACCAA | 0.181
CATCGCGC | 0.0713
GCCTACGC | -0.134
CTCGCAAC | -0.118
AATAATAG | 0.0496
CAAAAAAG | -0.0163
ACGTGGTA | -0.144

Sequence | PBM E-score
AAAGTATG | -0.172
ATCTGTCC | 0.113
CGGCTTAC | -0.034
AAGGAAAT | -0.156
CGCAGCAG | -0.0406
AGGCAGGA | -0.308
GTGCCGAA | 0.236
CGAGAGTC | 0.00804
AGTTGTAC | 0.0567
AAGAACAG | -0.29
CCATGGAG | -0.164
CAAAGAAG | -0.0546
GACAGAAA | 0.163
AGCGGGTC | 0.18
GACAGCAC | 0.0871
AAATTGAA | -0.246
AACTCGCA | -0.309
GCACATTA | 0.0815
AGGAGGGG | -0.302
CTCACGAA | -0.0973
AAGAGAAC | -0.0874
ATATGGGA | -0.00398
CCTAGCCA | -0.226
TAGAGATA | 0.0252
CCGACGTC | 0.268

Sequence | PBM E-score
CTGGGCAC | -0.152
CATACTAA | -0.21
CTATTCTC | -0.022
ACTGATAA | -0.115
ACTCCTCT | -0.104
ATTGCTGA | -0.197
GATAGAAC | 0.154
AGATCTTC | -0.184
ATCCGGAC | 0.258
AAGAACGC | -0.0139
CTCGAGCC | -0.0853
ATTGGTTG | -0.309
ATAAAAAT | 0.184
CTGTAATA | 0.179
CCCGGGGA | 0.252
ATTTACAC | 0.0234
CCCCATTA | -0.289
GAATGTAC | -0.121
CCGGCCAG | 0.229
GGATCAAC | 0.0826
CAATGTAC | -0.19
GATGACTA | -0.194
ATACTAGC | -0.0323
AACGTTAA | 0.111
ATTAGGAA | -0.0615

Sequence | PBM E-score
AGCGGACT | 0.39
CGGCTAAC | 0.0948
GATTTCCC | 0.121
GAAAGTTC | -0.0628
GATCGAAA | 0.025
AAGAGTTC | -0.221
GAAGATTC | -0.0122
TCCTTCGA | 0.152
ATAAGGTA | -0.00169
GCTGCCGA | 0.0951
CCGCCTAA | 0.21
GTACTCTA | -0.229
GAACACTC | 0.0983
CTTTCGCC | 0.0347
ACAACGCT | -0.0427
AGTAGGTA | -0.199
TAACACAA | 0.0222
AGACAAGA | -0.115
CGGTAGAC | 0.128
AACGTCCT | -0.237
AATTGCGA | 0.128
AATATCAA | -0.0438
AGCTTGGA | -0.203
ACAGGTCC | 0.0999
ACGCTGCA | -0.14

Sequence | PBM E-score
CCGAGAAC | 0.156
AAGCTCAT | -0.119
GCTCTCAC | -0.0463
CCTCACCC | -0.0298
AGGATCCA | -0.214
AACCTCTT | -0.0194
AACGCTAC | -0.00425
GCAAATCA | -0.0644
ATATCGTC | -0.0379
CTCCGCTA | 0.349
AAGTCCGC | 0.46
CGCCTGCC | -0.111
GCTACCGA | 0.184
ACAGAACG | -0.0563
AGGTCCGG | 0.382
AACTCCCA | -0.117
ACACCTTG | -0.0915
AGGCCTAA | -0.177
ATAATATG | 0.024
CCCCTGTC | -0.207
CCGTTTTC | 0.201
ACCTTGTA | -0.228
GTCGGTGA | 0.374
GATCCCTA | 0.00743
CACGAAAA | -0.139

Sequence | PBM E-score
CAAAACTA | -0.00581
AATCCTCA | -0.186
AAGCTGCC | -0.0664
GGATCGAA | 0.115
AAATAGCG | 0.0706
CAACCGTA | -0.155
CGCTATCA | 0.3
GACGCACC | 0.0726
AACTCCCC | 0.0697
TCTACTCA | -0.12
CCTATTCA | -0.064
CACTTGGC | -0.194
CCGTAATC | 0.0603
CCGTCGTA | 0.261
CCTTAGAG | -0.176
CGAACTCG | -0.00972
AGGCGATG | -0.189
GAGAGGAC | -0.202
CCTCAGCA | -0.172
ACTCGCAG | -0.193
GAACTGTC | -0.099
TTATAAAA | 0.119
AACAATGC | -0.134
TCTCCACA | -0.246
CAGAGGCC | -0.137

Sequence | PBM E-score
CACTGCGG | 0.0873
GTATGGAC | 0.14
GCGCACGA | -0.108
GGATATCA | 0.131
AAGGACCC | 0.0214
AAGACCCT | -0.233
ACGAGATA | -0.116
GAAAATCC | 0.157
AGGCCTAG | -0.102
AACCCTAT | -0.244
AGTTCAAA | -0.156
CAGAATAA | -0.0172
ATAAATAG | 0.0808
CTGCAGAC | 0.0864
GCATTATA | 0.105
GCTCAATA | -0.0372
CCAGATAC | -0.122
GGTGCGAC | 0.173
CAATCTAC | -0.244
CTGAGTAC | -0.0401
GCTCGGCA | 0.122
CGTCTAAA | -0.027
